The supplement of paper PMC10126150
Sequences with one replicate were seen in a single cluster, so their values are uncertain.

Tested on: ATP
Experiment: switch fluorescence ratio, 500 uM ATP over buffer (Cy3 cluster intensity, sum of 5 cycles each) (fold (ratio)); higher = stronger signal-on switching upon ATP binding; sequences stand for … in TCGTCGGCAGCGTCAGATGTGTATAAGAGACAGTTTTTTTTTTTTTTTTTTTTTTTTT…TC
Conditions: aptamer strand: ATP DNA aptamer (quencher-CACCTGGGGGAGTATTGCGGAGGAAGG + anchor), 100 nM annealed; ATP concentration: 500 uM; one replicate
How it was run: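 After annealing to 100 nM quencher-labelled ATP aptamer, Cy3-labelled switching-strand clusters on a modified Illumina MiSeq flow-cell were imaged in selection buffer. A second image followed after 15 min with 500 uM ATP at 22 °C, and five such buffer/ATP cycles were done, each separated by NaOH stripping and re-annealing. The fluorescence ratio, averaged per switch-domain sequence, is summed target-cycle over summed buffer-cycle Cy3 intensity per cluster, with clusters outside 100-1000 RFU excluded.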
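Further: ATP exposure 15 min at 22 °C before imaging.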

Row | Sequence | switch fluorescence ratio
1 | CCAAATCGGC | 0.914
2 | CCAACCGGCA | 1.26
3 | CCAACCTCTG | 1.04
4 | CCAACGGTGG | 1.06
5 | CCAACTACTT | 1.04
6 | CCAAGACTCT | 1.25
7 | CCAAGAGTTT | 1.02
8 | CCAAGCGTT | 1.14
9 | CCAAGCTTTA | 1.29
10 | CCAAGCTTTC | 3.31
11 | CCAAGGTACG | 1.06
12 | CCAAGTAGG | 1.02
13 | CCAAGTATGT | 1.01
14 | CCAAGTCG | 1.03
15 | CCAAGTCGT | 0.99
16 | CCAATACGC | 2.64
17 | CCAATCTGTA | 1.01
18 | CCAATTCTCC | 2.51
19 | CCACAACTGT | 1.03
20 | CCACACAGGA | 1.05
21 | CCACACTATT | 1.11
22 | CCACACTGAA | 1.03
23 | CCACACTTCA | 1.11
24 | CCACAGGCCA | 1.07
25 | CCACATCTGC | 1.07
26 | CCACCAGCAT | 4.52

Row | Sequence | switch fluorescence ratio
27 | CCACCCCGCA | 2.67
28 | CCACCGGATG | 1.3
29 | CCACCTAGGT | 1.17
30 | CCACCTTTAG | 1.02
31 | CCACGAATAT | 1.07
32 | CCACGTCCGC | 1.63
33 | CCACTAGATT | 1.07
34 | CCACTAGGCA | 1.04
35 | CCACTGTGCT | 1.13
36 | CCACTTGCTG | 1.01
37 | CCAGAAGGCC | 1
38 | CCAGAATCGG | 0.964
39 | CCAGAATTTT | 1.02
40 | CCAGACTAAG | 1.01
41 | CCAGACTTCG | 1.15
42 | CCAGAGCAGG | 1.15
43 | CCAGAGTTAT | 1.14
44 | CCAGATGGGA | 0.964
45 | CCAGATGGTT | 0.983
46 | CCAGCCAGCC | 1.24
47 | CCAGCCCGAC | 1.43
48 | CCAGCCGCTA | 2.13
49 | CCAGCCTCAC | 3.41
50 | CCAGCGACGG | 1.05
51 | CCAGCGGGGT | 1.09
52 | CCAGGACGGG | 0.986

Row | Sequence | switch fluorescence ratio
53 | CCAGGCACAT | 1.21
54 | CCAGGCGCGA | 2.43
55 | CCAGGGAAGC | 1.03
56 | CCAGGGCCGG | 1.01
57 | CCAGGTCGGG | 1.11
58 | CCAGTAATCA | 1.04
59 | CCAGTACTAG | 1.05
60 | CCAGTCAATT | 1.16
61 | CCAGTCCCAT | 1.08
62 | CCAGTCTTTG | 1.02
63 | CCAGTGTAAG | 0.989
64 | CCAGTTCGCT | 1.05
65 | CCAGTTGTCG | 1.03
66 | CCAGTTGTGT | 1.11
67 | CCATAAACGT | 1.01
68 | CCATAGACGG | 0.947
69 | CCATAGTTAA | 1.09
70 | CCATATAAGT | 1.02
71 | CCATATGTTA | 0.963
72 | CCATATT | 1.01
73 | CCATCCAGAA | 1.07
74 | CCATCTGTAC | 1.68
75 | CCATGACTCC | 1.58
76 | CCATGAGATA | 1.03
77 | CCATGCAGTG | 1.05
78 | CCATGCATGT | 0.947

Row | Sequence | switch fluorescence ratio
79 | CCATGCTGGC | 1.09
80 | CCATGGGCGG | 1.09
81 | CCATGTGGCT | 0.984
82 | CCATTACTAC | 1.14
83 | CCATTCCCTT | 0.994
84 | CCATTCTTTA | 0.974
85 | CCATTGAGAG | 1.01
86 | CCATTTAAGT | 0.958
87 | CCATTTGAAT | 0.994
88 | CCATTTGTTC | 0.98
89 | CCATTTTCAG | 0.999
90 | CCCAAAAGGG | 0.991
91 | CCCAAACCGC | 1.18
92 | CCCAACACAG | 1.07
93 | CCCAACCCTG | 1.01
94 | CCCAAGCGTC | 1.49
95 | CCCACGGAGA | 1.02
96 | CCCACTGGTT | 1.54
97 | CCCACTTGCA | 1.07
98 | CCCAGAAGC | 1.03
99 | CCCAGATGCC | 1.12
100 | CCCAGCAACG | 1.56
101 | CCCAGCAGAA | 2.33
